Test results published in publication PMC3454370.
Results are given in words; binding and its absence hold for the method and conditions named. For some of these results: In cells and extracts the contact can be indirect. Some entries that bind do so weakly or less than the wild type. For some of these results: Tags and fused reporters may be left off the sequences shown.

The chains behind the UniProt entries cited, without tags or fusion partners. Where a name states a change or a piece, a line headed by the entry shows the natural chain unless it says otherwise.
UniProt G3HV08: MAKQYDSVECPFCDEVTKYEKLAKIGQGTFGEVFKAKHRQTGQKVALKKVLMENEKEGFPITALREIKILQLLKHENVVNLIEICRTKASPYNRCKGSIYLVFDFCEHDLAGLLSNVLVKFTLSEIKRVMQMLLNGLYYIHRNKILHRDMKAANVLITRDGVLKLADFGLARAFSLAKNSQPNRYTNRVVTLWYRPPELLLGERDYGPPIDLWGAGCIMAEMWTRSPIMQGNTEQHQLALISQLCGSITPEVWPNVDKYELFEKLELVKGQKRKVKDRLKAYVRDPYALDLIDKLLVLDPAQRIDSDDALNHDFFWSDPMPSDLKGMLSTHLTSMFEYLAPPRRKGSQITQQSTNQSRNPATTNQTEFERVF
UniProt P50750: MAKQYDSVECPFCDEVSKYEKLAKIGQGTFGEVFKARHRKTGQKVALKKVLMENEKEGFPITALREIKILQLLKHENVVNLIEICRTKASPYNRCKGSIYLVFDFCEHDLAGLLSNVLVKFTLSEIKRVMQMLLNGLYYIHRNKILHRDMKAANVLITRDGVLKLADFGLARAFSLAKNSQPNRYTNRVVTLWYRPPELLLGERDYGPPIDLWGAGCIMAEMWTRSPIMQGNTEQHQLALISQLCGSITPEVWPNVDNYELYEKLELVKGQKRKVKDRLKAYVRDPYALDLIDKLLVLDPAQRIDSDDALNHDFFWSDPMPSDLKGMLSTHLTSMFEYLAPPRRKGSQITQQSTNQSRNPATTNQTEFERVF
UniProt P06492: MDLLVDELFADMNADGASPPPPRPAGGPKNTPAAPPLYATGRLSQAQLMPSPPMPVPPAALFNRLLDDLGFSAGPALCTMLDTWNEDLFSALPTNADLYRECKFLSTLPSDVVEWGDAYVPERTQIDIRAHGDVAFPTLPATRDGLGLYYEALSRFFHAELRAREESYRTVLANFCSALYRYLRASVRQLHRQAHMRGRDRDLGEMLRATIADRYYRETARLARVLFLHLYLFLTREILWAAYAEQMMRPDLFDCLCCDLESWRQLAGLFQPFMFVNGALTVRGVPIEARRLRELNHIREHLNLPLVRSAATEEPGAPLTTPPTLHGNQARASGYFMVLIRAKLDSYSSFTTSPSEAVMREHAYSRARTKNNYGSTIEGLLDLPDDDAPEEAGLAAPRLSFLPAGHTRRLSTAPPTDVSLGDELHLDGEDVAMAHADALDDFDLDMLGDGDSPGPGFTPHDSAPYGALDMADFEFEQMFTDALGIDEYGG

What was measured:
[1] = target: positive transcription elongation factor b (P-TEFb), endogenous in CHO-K1 cells (Chinese hamster (endogenous in CHO-K1)) (UniProt G3HV08); test: co-IP; CHO-K1 cells co-transfected with pcDNA-ICP22 and pcDNA-VP16 for 40 h; RIPA lysates; IP with anti-ICP22, anti-VP16, anti-Cdk9 or anti-CyclinT1 (IgG as control), also lysates mock-depleted with rabbit IgG; immunoblot
[2] = target: positive transcription elongation factor b (P-TEFb), endogenous in Hep-2 cells (human (endogenous in Hep-2)) (UniProt P50750); test: co-IP; Hep-2 cells infected with HSV-1 (MOI = 1) for 40 h; RIPA lysates; IP with anti-ICP22, anti-VP16, anti-Cdk9 or anti-CyclinT1 (IgG as control); immunoblot; also cells given si-Cdk9 and si-CyclinT1 or scrambled siRNA (100 nM) 12 h before infection, IP with anti-VP16 at 36 h
[3] = target: VP16 (HSV-1 tegument protein), expressed from pcDNA-VP16 (HSV-1) (UniProt P06492); test: co-IP; CHO-K1 cells co-transfected with pcDNA-ICP22 and pcDNA-VP16 for 40 h; RIPA lysates; IP with anti-ICP22, anti-VP16, anti-Cdk9 or anti-CyclinT1 (IgG as control), also lysates mock-depleted with rabbit IgG; immunoblot
[4] = target: VP16 two-hybrid fusion from pGBK-VP16 (HSV-1) (UniProt P06492); test: two-hybrid; yeast trap: yeast strain AH109 transformed with pGAD-ICP22 and pGBK-VP16; beta-galactosidase activity relative to the negative control
[5] = target: GST-VP16 fusion protein (HSV-1) (UniProt P06492); test: pull-down; in vitro binding assay: 600 ng GST-VP16 incubated with 400 ng purified ICP22 at 4 °C for 4 h (GST as control); Glutathione-Sepharose precoated with BSA, overnight at 4 °C; Western blot with anti-ICP22; both purified

Molecule: VP16 (HSV-1 tegument protein), expressed from pcDNA-VP16 (from UniProt P06492 1-490)
- binding [1]: binds

Molecule: VP16 made in HSV-1 infected Hep-2 cells (from UniProt P06492 1-490)
- binding [2]: binds

Molecule: positive transcription elongation factor b (P-TEFb), endogenous in CHO-K1 cells (from UniProt G3HV08 1-372; G3ILA5 1-729) (complex)
- binding [3]: binds

B1: ICP22 (HSV-1 immediate early protein), expressed from pcDNA-ICP22 (protein, UniProt P04485 1-420)
chain: MADISPGAFAPCVKARRPALRSPPLGTRKRKRPSRPLSSESEVESDTALESEVESETASDSTESGDQDEAPRIGGRRAPRRLGGRFFLDMSAESTTGTETDASVSDDPDDTSDWSYDDIPPRPKRARVNLRLTSSPDRRDGVIFPKMGRVRSTRETQPRAPTPSAPSPNAMLRRSVRQAQRRSSARWTPDLGYMRQCINQLFRVLRVARDPHGSANRLRHLIRDCYLMGYCRARLAPRTWCRLLQVSGGTWGMHLRNTIREVEARFDATAEPVCKLPCLETRRYGPECDLSNLEIHLSATSDDEISDATDLEAAGSDHTLASQSDTEDAPSPVTLETPEPRGSLAVRLEDEFGEFDWTPQEGSQPWLSAVVADTSSVERPGPSDSGAGRAAEDRKCLDGCRKMRFSTACPYPCSDTFLRP
- binding [1]: binds

B2: ICP22 made in HSV-1 infected Hep-2 cells (protein, UniProt P04485 1-420)
chain: B1 chain
- binding [2]: binds

B3: ICP22 two-hybrid fusion from pGAD-ICP22 (protein, UniProt P04485 1-420)
chain: B1 chain
- binding [4]: no binding

B4: purified ICP22 protein (protein, UniProt P04485 1-420)
chain: B1 chain
- binding [5]: no binding (tested: 600 ng GST-VP16, 400 ng ICP22)
